This continues a long series; more values of the same kind are listed elsewhere.
Key:
Rat [1] = test: concentration in brain after dosing; details: 1 h; dosed: 2-Methyltetrahydrofuran; 30 mg/kg; oral; Female; F344
Rat [2] = test: concentration in brain after dosing; details: 2.5 h; dosed: 2-Methyltetrahydrofuran; 10 mg/kg; oral; Male; F344
Rat [3] = test: concentration in brain after dosing; details: 1 h; dosed: 2-Methyltetrahydrofuran; 10 mg/kg; oral; Female; F344
Rat [4] = test: concentration in brain after dosing; details: 0.25 h; dosed: 2-Methyltetrahydrofuran; 10 mg/kg; oral; Female; F344
Rat [5] = test: concentration in brain after dosing; details: 4 min; dosed: 2-Methyltetrahydrofuran; 30 mg/kg; oral; Male; F344
Rat [6] = test: concentration in brain after dosing; details: 4 min; dosed: 2-Methyltetrahydrofuran; 10 mg/kg; oral; Female; F344
Rat [7] = test: concentration in brain after dosing; details: 0.75 h; dosed: 2-Methyltetrahydrofuran; 400 mg/kg; oral; Male; F344
Rat [8] = test: concentration in brain after dosing; details: 20 min; dosed: 2-Methyltetrahydrofuran; 100 mg/kg; oral; Male; Harlan Sprague Dawley
Rat [9] = test: concentration in brain after dosing; details: 2 min; dosed: 2-Methyltetrahydrofuran; 30 mg/kg; oral; Male; F344
Rat [10] = test: concentration in brain after dosing; details: 8 min; dosed: 2-Methyltetrahydrofuran; 30 mg/kg; oral; Male; F344
Rat [11] = test: concentration in brain after dosing; details: 0.75 h; dosed: 2-Methyltetrahydrofuran; 100 mg/kg; oral; Male; Harlan Sprague Dawley
Rat [12] = test: concentration in plasma after dosing; details: 2 min; dosed: 2-Methyltetrahydrofuran; 10 mg/kg; oral; Female; F344
Rat [13] = test: concentration in plasma after dosing; details: 2 min; dosed: 2-Methyltetrahydrofuran; 30 mg/kg; oral; Male; F344
Rat [14] = test: concentration in plasma after dosing; details: 5 min; dosed: 2-Methyltetrahydrofuran; 100 mg/kg; oral; Female; Harlan Sprague Dawley
Rat [15] = test: concentration in plasma after dosing; details: 4 h; dosed: 2-Methyltetrahydrofuran; 100 mg/kg; oral; Male; Harlan Sprague Dawley
Rat [16] = test: concentration in plasma after dosing; details: 2 min; dosed: 2-Methyltetrahydrofuran; 30 mg/kg; oral; Male; F344; remark: listed apart in the source
Rat [17] = test: concentration in plasma after dosing; details: 5 min; dosed: 2-Methyltetrahydrofuran; 400 mg/kg; oral; Male; F344
Rat [18] = test: concentration in plasma after dosing; details: 40 min; dosed: Bromochloroacetic acid; 10 mg/kg; iv; Male; F344
Rat [19] = test: concentration in plasma after dosing; details: 5 min; dosed: Bromochloroacetic acid; 10 mg/kg; iv; Male; F344
Rat [20] = test: concentration in plasma after dosing; details: dosed: Bromochloroacetic acid, 80 mg/kg, iv, Female, Harlan Sprague-Dawley
Rat [21] = test: concentration in plasma after dosing; details: 0.75 h; dosed: Fluorotelomer alcohol 8+2; 24 mg/kg; oral; Male; Harlan Sprague Dawley
Rat [22] = test: concentration in plasma after dosing; details: dosed: Fluorotelomer alcohol 8+2, 160 mg/kg, oral, Female, Harlan Sprague Dawley
Rat [23] = test: concentration in plasma after dosing; details: dosed: Formamide, 36 mg/kg, oral, Male, Harlan Sprague Dawley
Rat [24] = test: concentration in plasma after dosing; details: dosed: Formamide, 90 mg/kg, iv, Male, Harlan Sprague Dawley
Rat [25] = test: concentration in plasma after dosing; details: dosed: Formamide, 300 mg/kg, oral, Female, Harlan Sprague Dawley
Rat [26] = test: concentration in plasma after dosing; details: dosed: Formamide, 30 mg/kg, iv, Female, F344
Rat [27] = test: concentration in plasma after dosing; details: dosed: Formamide, 300 mg/kg, oral, Female, Harlan Sprague Dawley; remark: listed apart in the source
Rat [28] = test: concentration in plasma after dosing; details: dosed: Formamide, 600 mg/kg, oral, Female, Harlan Sprague Dawley
Rat [29] = test: concentration in plasma after dosing; details: dosed: Formamide, 36 mg/kg, oral, Female, Harlan Sprague Dawley
Rat [30] = test: concentration in plasma after dosing; details: dosed: Formamide, 300 mg/kg, oral, Female, Harlan Sprague Dawley; remark: listed apart in the source
Rat [31] = test: concentration in plasma after dosing; details: 2 h; dosed: Pyridine; 5 mg/kg; iv; Female; F344
Rat [32] = test: concentration in plasma after dosing; details: 5 h; dosed: Pyridine; 200 mg/kg; oral; Female; Harlan Sprague Dawley
Rat [33] = test: concentration in plasma after dosing; details: 20 min; dosed: Pyridine; 10 mg/kg; iv; Male; Harlan Sprague Dawley
Rat [34] = test: concentration in plasma after dosing; details: 20 min; dosed: Pyridine; 200 mg/kg; oral; Female; Harlan Sprague Dawley
Rat [35] = test: concentration in plasma after dosing; details: 20 min; dosed: Pyridine; 200 mg/kg; oral; Female; Harlan Sprague Dawley; remark: listed apart in the source
Rat [36] = test: concentration in plasma after dosing; details: 20 min; dosed: Pyridine; 200 mg/kg; oral; Female; F344

CC1CCCO1 (stereo unspecified) [2-Methyltetrahydrofuran]
Details	concentration in brain [µg/g]	concentration in plasma [ng/mL]
Rat [1]	7.54	–
Rat [2]	0.0218	–
Rat [3]	0.435	–
Rat [4]	3.05	–
Rat [5]	6.65	–
Rat [6]	3.43	–
Rat [7]	126	–
Rat [8]	35.8	–
Rat [9]	2.25	–
Rat [10]	9.97	–
Rat [11]	53.6	–
Rat [12]	–	2690
Rat [13]	–	934
Rat [14]	–	40200
Rat [15]	–	12700
Rat [16]	–	1400
Rat [17]	–	169000

O=C(O)C(Cl)Br (stereo unspecified) [Bromochloroacetic acid]
Details	concentration in plasma [ng/mL]
Rat [18]	188
Rat [19]	13700

Rat [20]
Details	concentration in plasma [ng/mL]
1 h	22000
2 h	3760

OCCC(F)(F)C(F)(F)C(F)(F)C(F)(F)C(F)(F)C(F)(F)C(F)(F)C(F)(F)F [Fluorotelomer alcohol 8+2]
Details	concentration in plasma [ng/mL]
Rat [21]	1020

Rat [22]
Details	concentration in plasma [ng/mL]
3 h	1770
5 min	40.4

NC=O [Formamide]
Details	concentration in plasma [ng/mL]
Rat [23], 1.5 h	47400
Rat [23], 30 h	12400
Rat [24], 1 h	156000
Rat [24], 3 h	156000
Rat [25], 1 h	192000
Rat [25], 72 h	13000
Rat [26], 1 h	38300
Rat [26], 3 h	35200
Rat [27], 1.5 h	281000
Rat [27], 30 h	84700
Rat [28], 1.5 h	746000
Rat [28], 30 h	216000
Rat [29], 2 h	42800
Rat [29], 5 min	9800
Rat [30], 0.25 h	143000
Rat [30], 5 h	241000

c1ccncc1 [Pyridine]
Details	concentration in plasma [ng/mL]
Rat [31]	2970
Rat [32]	85500
Rat [33]	3770
Rat [34]	90200
Rat [35]	106000
Rat [36]	57100

Reference: EPA's CvTdb concentration-time database
